# In PubChem BioAssay (NCATS):
# Values joined by “and” are separate entries in the source; they are usually repeats but may differ in a detail not shown here. Equal values may be shown once. The shares of active, inactive and inconclusive entries below differ from those in the screen. For some of these results: Potencies of inconclusive entries are doubtful fits and often do not repeat. Active and inactive are the calls of the source. The call rests on the fitted dose curve; in most records, active means well fitted curve in the direction sought with a large enough effect; inconclusive means small, poorly fitted or top-dose-only effect, or another doubt; inactive means no such curve, though single readings can be large; an effect the other way counts as inactive or inconclusive.
# Columns and labels:
# [1] = target: Rap guanine nucleotide exchange factor 3 (Homo sapiens) (UniProt O95398); experiment: Confirmatory qHTS for antagonist of cAMP-regulated guanine nucleotide exchange factor 3 (EPAC1) (AID 1645880); settings: EPAC1 Rap1B-BODIPY-GDP exchange, fluorescence; activity, negative = inhibition: at 115 µM (top of the series); further: nearly all actives have a fitted effect of over 55% in size; further: potency means the concentration at half of the fitted maximal effect;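 on activity, negative = inhibition: plate controls were DMSO only for no effect and full effect of the ATA control for full effect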
# Chain of UniProt O95398 (O95398 whole entry, looked up): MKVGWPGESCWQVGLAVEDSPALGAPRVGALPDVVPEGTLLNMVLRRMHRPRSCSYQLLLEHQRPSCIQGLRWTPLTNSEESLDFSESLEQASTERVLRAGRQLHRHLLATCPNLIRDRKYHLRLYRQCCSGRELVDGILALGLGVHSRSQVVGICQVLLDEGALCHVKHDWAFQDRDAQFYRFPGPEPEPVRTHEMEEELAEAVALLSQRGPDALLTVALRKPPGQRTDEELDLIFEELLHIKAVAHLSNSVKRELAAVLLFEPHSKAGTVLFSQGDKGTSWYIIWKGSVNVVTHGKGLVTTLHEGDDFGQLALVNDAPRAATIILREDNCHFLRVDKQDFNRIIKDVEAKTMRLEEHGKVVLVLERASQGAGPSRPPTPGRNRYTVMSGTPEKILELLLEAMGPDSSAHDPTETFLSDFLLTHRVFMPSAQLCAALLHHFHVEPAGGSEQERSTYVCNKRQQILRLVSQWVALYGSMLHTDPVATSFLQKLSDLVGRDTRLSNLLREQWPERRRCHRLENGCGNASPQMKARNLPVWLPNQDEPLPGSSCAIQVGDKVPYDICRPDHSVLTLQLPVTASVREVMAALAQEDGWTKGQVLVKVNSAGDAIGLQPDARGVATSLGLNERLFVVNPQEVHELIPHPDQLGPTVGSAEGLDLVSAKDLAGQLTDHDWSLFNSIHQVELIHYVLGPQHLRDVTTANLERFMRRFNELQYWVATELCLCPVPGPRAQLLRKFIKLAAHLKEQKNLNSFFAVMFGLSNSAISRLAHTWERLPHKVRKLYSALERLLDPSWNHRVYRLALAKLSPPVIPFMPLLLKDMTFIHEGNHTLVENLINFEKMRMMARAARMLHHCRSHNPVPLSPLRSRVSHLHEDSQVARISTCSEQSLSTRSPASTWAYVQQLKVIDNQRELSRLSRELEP
# In short: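 Released BODIPY-GDP fluoresces less than Rap1-bound BODIPY-GDP; the signal is followed at 480/540 nm at 5-min intervals over 30 min, after 5 min at room temperature. Reactions contain 100 nM EPAC1, 250 nM RAP1B-BODIPY-GDP and 50 uM GDP; results are normalized to ATA and DMSO.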
# [2] = target: Rap guanine nucleotide exchange factor 3 (Homo sapiens) (UniProt O95398); experiment: Counterscreen qHTS for agonist of cAMP-regulated guanine nucleotide exchange factor 3 (EPAC1) (AID 1645889); settings: EPAC1 Rap1B-BODIPY-GDP exchange, fluorescence; activation: at 154 µM (top of the series) unless noted; further: nearly all actives have a fitted effect of over 40% in size; further: potency means the concentration at half of the fitted maximal effect; on activation: % of control where 0% means no effect
# In short: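 Measured: fluorescence of BODIPY-GDP bound to Rap1B, which falls as exchange proceeds. Conditions include 50 uM competing GDP, 5 and 30 min reads, and a later cAMP challenge for antagonist detection.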
# [3] = target: Endonuclease 4 (Escherichia coli (strain K12)) (UniProt P0A6C1); experiment: Counterscreen for APE1 Inhibitors: qHTS Assay for Inhibitors of Endonuclease IV (AID 2565); further: potency means the concentration at half of the fitted maximal effect; settings: E. coli Endo IV, fluorogenic AP-site DNA cleavage; series mostly up to 57.1 µM
# In short: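 Enzyme (2 nM) + compound, 15 min RT; add 50 nM TAMRA/BHQ-2 THF-site dsDNA; kinetic read ex525/em598, 3 reads/60 s; activity = read 3 − read 1. Buffer Tris pH 7.5, 50 mM NaCl, 2 mM MgCl2, DTT, Tween-20.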
# [4] = target: DNA repair nuclease/redox regulator APEX1 (Homo sapiens) (UniProt P27695); experiment: Confirmation qHTS Assay for Inhibitors of the Human Apurinic/apyrimidinic Endonuclease 1 (APE1) (AID 2572); settings: purified APE1, fluorogenic abasic-site DNA cleavage; series mostly up to 57.1 µM; further: potency means the concentration at half of the fitted maximal effect; nearly all actives have a fitted effect of over 30% in size
# Chain of UniProt P27695 (P27695 whole entry, looked up): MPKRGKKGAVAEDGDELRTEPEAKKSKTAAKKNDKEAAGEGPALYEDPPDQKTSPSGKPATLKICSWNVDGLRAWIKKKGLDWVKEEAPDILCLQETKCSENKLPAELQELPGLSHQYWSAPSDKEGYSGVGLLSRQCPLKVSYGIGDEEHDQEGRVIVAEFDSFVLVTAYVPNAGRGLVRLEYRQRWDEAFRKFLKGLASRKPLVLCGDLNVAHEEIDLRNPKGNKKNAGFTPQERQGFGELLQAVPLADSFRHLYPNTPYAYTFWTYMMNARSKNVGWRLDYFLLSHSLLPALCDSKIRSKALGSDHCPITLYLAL
# In short: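 Confirmation qHTS in dose-response format: APE1 exposed to compound 15 min at RT, then reaction started with 50 nM final TAMRA/BHQ-2 abasic substrate. Three fluorescence reads 60 s apart; endpoint minus initial read gives progress.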
# [5] = target: DNA repair nuclease/redox regulator APEX1 (Homo sapiens) (UniProt P27695); experiment: qHTS FP-Based Assay for Inhibitors of the Human Apurinic/apyrimidinic Endonuclease 1 (APE1) (AID 2573); settings: APE1 binding to TAMRA-labelled double-stranded DNA, fluorescence polarization displacement; series mostly up to 28.5 µM; further: on the % scale 0 is the no-effect control and ±100 the full control effect
# [6] = target: DNA polymerase eta (Homo sapiens) (UniProt Q9Y253); experiment: qHTS for Inhibitors of Polymerase Eta: Confirmatory Assay for Cherry-picked Compounds (AID 720502); settings: Pol eta primer extension, TAMRA/BHQ fluorescence, 10 min; further: potency means the concentration at half of the fitted maximal effect
# Chain of UniProt Q9Y253 (Q9Y253 whole entry, looked up): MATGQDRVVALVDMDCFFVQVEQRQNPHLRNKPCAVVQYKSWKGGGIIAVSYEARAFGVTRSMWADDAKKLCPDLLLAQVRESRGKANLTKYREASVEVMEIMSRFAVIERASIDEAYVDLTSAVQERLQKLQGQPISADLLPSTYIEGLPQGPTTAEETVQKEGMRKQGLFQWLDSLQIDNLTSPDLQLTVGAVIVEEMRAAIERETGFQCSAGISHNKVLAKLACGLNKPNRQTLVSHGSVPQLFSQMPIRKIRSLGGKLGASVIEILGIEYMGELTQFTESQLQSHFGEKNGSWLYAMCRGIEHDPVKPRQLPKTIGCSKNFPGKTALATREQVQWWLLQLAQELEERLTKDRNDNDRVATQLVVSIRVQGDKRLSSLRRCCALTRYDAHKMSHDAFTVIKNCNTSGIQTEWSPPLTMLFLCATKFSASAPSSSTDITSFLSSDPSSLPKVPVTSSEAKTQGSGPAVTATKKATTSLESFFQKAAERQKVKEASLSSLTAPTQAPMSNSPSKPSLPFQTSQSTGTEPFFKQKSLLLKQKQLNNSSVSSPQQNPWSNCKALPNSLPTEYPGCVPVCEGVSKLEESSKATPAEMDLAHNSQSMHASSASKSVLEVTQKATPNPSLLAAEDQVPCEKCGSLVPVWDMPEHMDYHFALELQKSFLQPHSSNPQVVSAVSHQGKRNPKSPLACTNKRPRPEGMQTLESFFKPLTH
# In short: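 The reaction starts with 50 nM final labeled DNA substrate added to Pol eta (10 nM) that had sat with compound for 15 min. TAMRA emission at 598 nm is read at 0 and 10 min.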
# [7] = target: Cytochrome P450 2C9 (Homo sapiens) (UniProt P11712); experiment: qHTS Assay for Inhibitors and Substrates of Cytochrome P450 2C9 (AID 883); settings: recombinant CYP2C9, luciferin-H luminescence, 60 min; series mostly up to 57.1 µM; further: potency means the concentration at half of the fitted maximal effect; nearly all actives have a fitted effect of over 60% in size
# Chain of UniProt P11712 (P11712 whole entry, looked up): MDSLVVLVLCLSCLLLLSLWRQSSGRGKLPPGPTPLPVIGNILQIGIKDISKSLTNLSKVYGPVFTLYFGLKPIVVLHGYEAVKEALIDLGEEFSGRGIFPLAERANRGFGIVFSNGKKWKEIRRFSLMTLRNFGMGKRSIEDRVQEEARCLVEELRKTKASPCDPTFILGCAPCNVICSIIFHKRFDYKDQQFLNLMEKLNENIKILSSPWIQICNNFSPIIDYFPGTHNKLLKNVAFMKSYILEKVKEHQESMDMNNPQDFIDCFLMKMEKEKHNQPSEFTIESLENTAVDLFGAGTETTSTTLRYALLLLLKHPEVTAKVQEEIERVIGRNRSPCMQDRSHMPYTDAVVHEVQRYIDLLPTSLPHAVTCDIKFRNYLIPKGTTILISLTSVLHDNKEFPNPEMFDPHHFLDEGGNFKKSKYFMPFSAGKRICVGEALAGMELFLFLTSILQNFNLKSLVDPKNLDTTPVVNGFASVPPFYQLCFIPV
# In short: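 CYP2C9 deoxyluciferin hydroxylation, 37C, 60 min with NADPH regeneration; 10nM enzyme, 100uM Luciferin-H (KM). Glo detection reagent stopped reaction; luminescence normalized to sulphaphenazole (57uM) full inhibition.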
# [8] = target: Dual specificity protein kinase CLK4 (Homo sapiens) (UniProt Q9HAZ1); experiment: qHTS Assay for Inhibitors of CDC-like Kinase 4 (Kinase-Glo Assay) (AID 1770); settings: recombinant Clk4, Kinase-Glo ATP depletion luminescence; series mostly up to 66.7 µM; further: potency means the concentration at half of the fitted maximal effect; nearly all actives have a fitted effect of over 65% in size
# Chain of UniProt Q9HAZ1 (Q9HAZ1 whole entry, looked up): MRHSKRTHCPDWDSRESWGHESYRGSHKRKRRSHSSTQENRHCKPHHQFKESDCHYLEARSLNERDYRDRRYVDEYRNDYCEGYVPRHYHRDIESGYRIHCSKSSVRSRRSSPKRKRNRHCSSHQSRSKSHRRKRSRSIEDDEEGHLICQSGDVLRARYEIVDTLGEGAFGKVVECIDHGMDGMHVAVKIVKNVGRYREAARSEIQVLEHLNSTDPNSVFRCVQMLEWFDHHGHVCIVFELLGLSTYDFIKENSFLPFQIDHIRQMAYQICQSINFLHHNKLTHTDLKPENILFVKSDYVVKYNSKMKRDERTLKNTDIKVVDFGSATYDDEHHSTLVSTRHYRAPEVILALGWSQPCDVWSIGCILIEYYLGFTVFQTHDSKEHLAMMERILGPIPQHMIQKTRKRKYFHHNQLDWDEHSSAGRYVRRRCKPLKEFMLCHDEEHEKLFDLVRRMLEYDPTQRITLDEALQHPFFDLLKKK
# In short: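 Substrate mix (RS peptide 100 uM, ATP 1 uM) dispensed, compound pinned in, then Clk4 added to 25 nM final. Incubated 4.5 h at RT; Kinase-Glo reagent added, luminescence read after 5 min.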
# Tags describe the fitted curve by direction and shape.
smiles,measurement,setting,value
N#CC1=C(N)SC(N)=C(C#N)C1c1cccc(Oc2ccccc2)c1,Potency,[1],active: 67.5 µM
same,Potency,[2],"inconclusive: 12.6 µM [activator, full curve, poor fit]"
O=C(NCCc1c[nH]c2ccccc12)C(=O)Nc1cc2c3c(c1)CC(=O)N3CCC2,Potency,[1],"inconclusive: 84.9 µM [inhibitor, partial curve, poor fit]"
same,Potency,[2],inactive
O=C(/C=C/c1ccco1)Nc1ccc(Cl)c(-c2nc3cc(Cl)ccc3o2)c1,Potency,[1],active: 75.7 µM
same,Potency,[2],"inconclusive: 3.55 µM [activator, full curve, poor fit]"
C[C@@H]1COC(=O)[C@H](NC(=O)OCC2c3ccccc3-c3ccccc32)C/C=C\C[C@@H](CC(=O)N[C@H](CO)Cc2ccccc2)C(=O)N1,Potency,[1],"inconclusive: 63.1 µM [inhibitor, partial curve, poor fit]"
same,activation,[2],inactive: -0.359% [at 30.8 µM]
COC(=O)C1(C)CC1(c1ccccc1)c1ccccc1 (centres undefined),Potency,[1],"inconclusive: 14.1 µM [inhibitor, partial curve]"
same,Potency,[2],"inconclusive: 0.0141 µM [activator, full curve]"
Cn1c(SCC(=O)c2cc(Cl)c(Cl)s2)nnc1-c1ccco1,Potency,[1],"inconclusive: 84.9 µM [inhibitor, partial curve, poor fit]"
same,activation,[2],inconclusive: 53.8% [activator]
OC(CSc1ccccc1)CN1CCN(c2cccc(Cl)c2)CC1 (centres undefined),Potency,[1],"inconclusive: 2.51 µM [inhibitor, partial curve]"
same,Potency,[2],"inconclusive: 25.1 µM [activator, partial curve, poor fit]"
CC1Sc2ccc(C(=O)OCc3ccccc3Cl)cc2NC1=O (centres undefined),Potency,[1],inactive
same,Potency,[2],"inconclusive: 1 µM [activator, full curve, poor fit]"
CCN(CC)c1ccc(Nc2nc(-c3cccnc3)cs2)cc1,Potency,[1],inactive
same,Potency,[2],"inconclusive: 12.6 µM [activator, full curve, poor fit]"
COc1ccc(-c2[nH]c(-c3ccc(SC)cc3)nc2SCC(=O)Nc2nccs2)cc1,Potency,[1],active: 84.9 µM
same,activation,[2],inconclusive: 30.3% [activator]
Cc1ccc2cccc(Oc3nnnn3-c3ccccc3)c2n1,Potency,[1],inactive
same,Potency,[2],inactive
O=c1ccc(NS(=O)(=O)c2ccc(Cl)cc2)cn1Cc1ccc(Cl)c(Cl)c1,Potency,[1],active: 75.7 µM
same,activation,[2],inconclusive: 20.9% [activator]
CCOC(=O)Cc1nnc(NC(=O)CSc2nnc3c(n2)[nH]c2ccccc23)s1,Potency,[1],active: 44.7 µM
same,Potency,[2],"inconclusive: 0.199 µM [activator, full curve, poor fit]"
Cc1ccc(SC/C(O)=C(\C#N)c2nc3ccccc3s2)cc1,Potency,[1],"inconclusive: 7.57 µM [inhibitor, partial curve, poor fit]"
same,activation,[2],inconclusive: 27.8% [activator]
Cc1cccc([C@H]2[C@@H]3C=CCC[C@@H]3C(=O)N2Cc2ccccc2)c1,Potency,[1],"inconclusive: 47.8 µM [inhibitor, partial curve, poor fit]"
same,activation,[2],inconclusive: 31.1% [activator]
Cc1ccc(C)c(S(=O)(=O)N2CCN(C(=O)CCc3nc4ccccc4c(=O)[nH]3)CC2)c1,Potency,[1],inactive
same,activation,[2],inactive: 23.6% [at 30.8 µM]
CCC(=O)N(CCC(Cc1ccccc1)c1ccco1)Cc1ccco1 (centres undefined),Potency,[1],"inconclusive: 26.9 µM [inhibitor, partial curve]"
same,Potency,[2],inactive
Cc1ccc(C)c(S(=O)(=O)N2CCN(C(=O)CCCc3c[nH]c4ccccc34)CC2)c1,Potency,[1],inactive
same,Potency,[2],"inconclusive: 3.16 µM [activator, full curve, poor fit]"
C=CCOC(=O)C1=C(C)Nc2nnnn2C1c1cccs1 (centres undefined),Potency,[1],inactive
same,Potency,[2],inactive
COc1ccccc1C1CC(=O)Oc2cc(C)c(Cl)c(C)c21 (centres undefined),Potency,[1],inactive
same,activation,[2],inactive: 15.1% [at 30.8 µM]
Cc1ccc(N=C2NC(=O)/C(=C/C=C/c3ccco3)S2)cc1,Potency,[3],"inconclusive: 2.82 µM [inhibitor, partial curve, poor fit]"
same,Potency,[4],"inconclusive: 79.4 µM [inhibitor, partial curve, poor fit]"
same,Potency,[5],inactive
same,Potency,[6],active: 67.5 µM
same,Potency,[1],"inconclusive: 9.53 µM [inhibitor, full curve]"
same,activation,[2],inconclusive: 38.7% [activator]
COCOCCn1cc(CN2CCS(=O)(=O)N(Cc3ccc(-c4ccc(F)cc4)cc3)C(CC(C)C)C2=O)nn1 (centres undefined),Potency,[1],"inconclusive: 75.7 µM [inhibitor, partial curve]"
same,Potency,[2],inactive
O=C(O)c1ccccc1NS(=O)(=O)c1ccc(NN=Cc2ccc(F)cc2)c([N+](=O)[O-])c1,Potency,[1],active: 26.9 µM
same,Potency,[2],"inconclusive: 12.6 µM [activator, partial curve, poor fit]"
CCCCC(CC)COC1(c2ccccc2)OC(=O)c2ccccc21 (centres undefined),Potency,[1],"inconclusive: 53.6 µM [inhibitor, partial curve, poor fit]"
same,Potency,[2],inactive
Cc1ccc(S(=O)(=O)N2CCN(CC(=O)Nc3ccccc3C(=O)NC3CC3)CC2)cc1,Potency,[1],inactive
same,Potency,[2],"inconclusive: 0.0355 µM [activator, full curve, poor fit]"
CC(NC(=O)c1sc2ncccc2c1-n1cccc1)c1ccccc1 (centres undefined),Potency,[1],"inconclusive: 95.3 µM [inhibitor, single point]"
same,activation,[2],inconclusive: 66.1% [activator]
COC(=O)c1ccc2nc(-c3ccc(C)cc3)c(Cc3ccsc3)n2c1,Potency,[1],"inconclusive: 20 µM [inhibitor, full curve, poor fit]"
same,activation,[2],inactive: 9.45% [at 30.8 µM]
COc1ccc(S(=O)(=O)/N=C2/NC(=O)/C(=C\c3cc(OC)c(OC)cc3[N+](=O)[O-])S2)cc1,Potency,[1],"inconclusive: 12.6 µM [inhibitor, partial curve, poor fit]"
same,activation,[2],inconclusive: 46.6% [activator] [at 30.8 µM]
c1cc(-c2cc3nc(NC4CCCCC4)ccn3n2)ccc1OCCN1CCOCC1,Potency,[1],"inconclusive: 0.019 µM [inhibitor, full curve, poor fit]"
same,activation,[2],inconclusive: 39% [activator]
COc1ccc(CCn2c(=N)c(C(=O)NC3CCCCC3)cc3c(=O)n4ccccc4nc32)cc1,Potency,[1],"inconclusive: 84.9 µM [inhibitor, partial curve]"
same,Potency,[2],inactive
COc1ccc(N(CC(=O)NC2CCCCCCC2)S(=O)(=O)c2c(C)nn(C)c2C)cc1,Potency,[1],"inconclusive: 84.9 µM [inhibitor, partial curve, poor fit]"
same,Potency,[2],inactive
O=C(Nc1c(-c2ccc3c(c2)OCO3)[nH][nH]c1=O)c1ccccc1,Potency,[1],"inconclusive: 95.3 µM [inhibitor, partial curve, poor fit]"
same,Potency,[2],"inconclusive: 2.24 µM [activator, full curve, poor fit]"
Oc1ccc(NCc2ccc(OCc3ccccc3)cc2)cc1,Potency,[6],"inconclusive: 84.9 µM [inhibitor, single point]"
same,Potency,[1],"inconclusive: 84.9 µM [inhibitor, single point] and inconclusive: 39.8 µM [inhibitor, partial curve, poor fit]"
same,Potency,[2],"inconclusive: 14.1 µM [activator, full curve]"
same,activation,[2],inactive: 16.4% [at 30.8 µM]
COc1cccc(-c2ccc3ncnc(N(C)Cc4ccco4)c3c2)c1,Potency,[7],"inconclusive: 1.26 µM [inhibitor, single point]"
same,Potency,[8],active: 2 µM
same,Potency,[1],inactive
same,activation,[2],inconclusive: 54.1% [activator] [at 30.8 µM]
CCOC(=O)N(C)c1c(CC)nc2c(OCc3ccc(C(F)(F)F)cc3)cccn12,Potency,[1],"inconclusive: 53.6 µM [inhibitor, partial curve, poor fit]"
same,Potency,[2],inactive
CCc1nnc(NS(=O)(=O)c2ccc(NC(=O)C(c3ccccc3)c3ccccc3)cc2)s1,Potency,[1],"inconclusive: 75.7 µM [inhibitor, partial curve]"
same,activation,[2],inconclusive: 29.3% [activator]
COc1ccc(C(C)=NNc2ccc([N+](=O)[O-])cc2S(=O)(=O)Nc2ccccc2C(=O)O)c(OC)c1,Potency,[1],active: 37.9 µM
same,Potency,[2],inactive
O=C1C=C(N2CCCCC2)c2ccccc2C1=O,Potency,[1],active: 25.1 µM
same,Potency,[2],"inconclusive: 1.41 µM [activator, partial curve, poor fit]"
COC(=O)Cn1c(CN2CCc3ccccc3C2)nc2c1c(=O)n(C)c(=O)n2C,Potency,[1],"inconclusive: 0.006 µM [inhibitor, full curve, poor fit]"
same,activation,[2],inconclusive: 39.9% [activator]
CCOC(=O)c1sc(N2C(=O)C(O)=C(C(=O)c3ccco3)C2c2cccc([N+](=O)[O-])c2)nc1C (centres undefined),Potency,[1],active: 5.36 µM
same,Potency,[2],"inconclusive: 12.6 µM [activator, partial curve, poor fit]"
CN(C)C(CNC(=O)c1cc(-c2ccco2)nc2ccccc12)c1ccccc1 (centres undefined),Potency,[1],"inconclusive: 39.8 µM [inhibitor, partial curve]"
same,Potency,[2],"inconclusive: 0.0398 µM [activator, full curve, poor fit]"
O=c1c([N+](=O)[O-])cn(Cc2ccccc2)c(=O)n1Cc1ccccc1,Potency,[1],"inconclusive: 50.1 µM [inhibitor, partial curve, poor fit]"
same,Potency,[2],"inconclusive: 0.01 µM [activator, full curve, poor fit]"
CCOc1cc(CNCCSc2nnnn2C)ccc1OCc1ccc(Cl)cc1Cl,Potency,[1],"inconclusive: 84.9 µM [inhibitor, single point]"
same,activation,[2],inconclusive: 40.4% [activator]
